From the supplement of paper PMC8728848
This is one part of the list.

Legend:
Assay in all cases: glycan array binding signal (z-score within array); higher = stronger binding
Details in all cases: glycan notation: IUPAC condensed, linker removed; mutation: R186S
[1] = molecular target: Gal(b1-4)GlcNAc(a1-6)Gal(b1-4)GlcNAc
How it was run: (§1)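 Glycan array data came from 3228 arrays in the Consortium for Functional Glycomics database, and only arrays with an available protein sequence were kept. Glycan names were put into IUPAC-condensed notation, and columns mapping to the same glycan were averaged. The binding signal is a within-array Z-score, averaged across arrays of one protein sequence run at different concentrations or buffers and across linkers. A negative Z-score can be read as non-binding.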

[2] = molecular target: Gal(b1-4)GlcNAc(b1-2)Man(a1-3)Man(b1-4)GlcNAc(b1-4)GlcNAc
How it was run: as §1

[3] = molecular target: Gal(b1-4)GlcNAc(b1-2)Man(a1-3)[Gal(b1-4)GlcNAc(b1-2)Man(a1-6)]Man(b1-4)GlcNAc(b1-4)GlcNAc
How it was run: as §1

[4] = molecular target: Gal(b1-4)GlcNAc(b1-2)Man(a1-3)[Gal(b1-4)GlcNAc(b1-2)Man(a1-6)]Man(b1-4)GlcNAc(b1-4)[Fuc(a1-6)]GlcNAc
How it was run: as §1

[5] = molecular target: Gal(b1-4)GlcNAc(b1-2)Man(a1-3)[GlcNAc(b1-2)Man(a1-6)]Man(b1-4)GlcNAc(b1-4)GlcNAc
How it was run: as §1

[6] = molecular target: Gal(b1-4)GlcNAc(b1-2)Man(a1-3)[Man(a1-6)]Man(b1-4)GlcNAc(b1-4)GlcNAc
How it was run: as §1

[7] = molecular target: Gal(b1-4)GlcNAc(b1-2)Man(a1-6)Man(b1-4)GlcNAc(b1-4)GlcNAc
How it was run: as §1

[8] = molecular target: Gal(b1-4)GlcNAc(b1-2)Man(a1-6)[GlcNAc(b1-2)Man(a1-3)]Man(b1-4)GlcNAc(b1-4)GlcNAc
How it was run: as §1

[9] = molecular target: Gal(b1-4)GlcNAc(b1-2)Man(a1-6)[Man(a1-3)]Man(b1-4)GlcNAc(b1-4)GlcNAc
How it was run: as §1

[10] = molecular target: Gal(b1-4)GlcNAc(b1-2)[Gal(b1-4)GlcNAc(b1-4)]Man(a1-3)[Gal(b1-4)GlcNAc(b1-2)Man(a1-6)]Man(b1-4)GlcNAc(b1-4)GlcNAc
How it was run: as §1

[11] = molecular target: Gal(b1-4)GlcNAc(b1-2)[Gal(b1-4)GlcNAc(b1-4)]Man(a1-3)[Gal(b1-4)GlcNAc(b1-2)[Gal(b1-4)GlcNAc(b1-6)]Man(a1-6)]Man(b1-4)GlcNAc(b1-4)GlcNAc
How it was run: as §1

[12] = molecular target: Gal(b1-4)GlcNAc(b1-3)Gal(b1-3)GlcNAc
How it was run: as §1

[13] = molecular target: Gal(b1-4)GlcNAc(b1-3)Gal(b1-4)Glc
How it was run: as §1

[14] = molecular target: Gal(b1-4)GlcNAc(b1-3)Gal(b1-4)GlcNAc
How it was run: as §1

[15] = molecular target: Gal(b1-4)GlcNAc(b1-3)Gal(b1-4)GlcNAc(b1-3)Gal(b1-4)GlcNAc
How it was run: as §1

[16] = molecular target: Gal(b1-4)GlcNAc(b1-3)Gal(b1-4)[Fuc(a1-3)]GlcNAc(b1-3)Gal(b1-4)[Fuc(a1-3)]GlcNAc
How it was run: as §1

[17] = molecular target: Gal(b1-4)GlcNAc(b1-3)GalNAc
How it was run: as §1

[18] = molecular target: Gal(b1-4)GlcNAc(b1-3)[Gal(b1-4)GlcNAc(b1-6)]Gal(b1-4)GlcNAc
How it was run: as §1

[19] = molecular target: Gal(b1-4)GlcNAc(b1-3)[Gal(b1-4)GlcNAc(b1-6)]GalNAc
How it was run: as §1

[20] = molecular target: Gal(b1-4)GlcNAc(b1-3)[GlcNAc(b1-6)]Gal(b1-4)GlcNAc
How it was run: as §1

[21] = molecular target: Gal(b1-4)GlcNAc(b1-6)Gal(b1-4)GlcNAc
How it was run: as §1

[22] = molecular target: Gal(b1-4)GlcNAc(b1-6)GalNAc
How it was run: as §1

[23] = molecular target: Gal(b1-4)GlcNAc(b1-6)[Gal(b1-3)]GalNAc
How it was run: as §1

[24] = molecular target: Gal3S(b1-3)GalNAc
How it was run: as §1

[25] = molecular target: Gal3S(b1-3)GlcNAc
How it was run: as §1

[26] = molecular target: Gal3S(b1-3)[Fuc(a1-4)]GlcNAc
How it was run: as §1

[27] = molecular target: Gal3S(b1-4)Glc
How it was run: as §1

[28] = molecular target: Gal3S(b1-4)Glc6S
How it was run: as §1

[29] = molecular target: Gal3S(b1-4)GlcNAc
How it was run: as §1

[30] = molecular target: Gal3S(b1-4)GlcNAc6S
How it was run: as §1

[31] = molecular target: Gal3S(b1-4)[Fuc(a1-3)]Glc
How it was run: as §1

[32] = molecular target: Gal3S(b1-4)[Fuc(a1-3)]Glc6S
How it was run: as §1

[33] = molecular target: Gal3S4S(b1-4)GlcNAc
How it was run: as §1

[34] = molecular target: Gal3S6S(b1-4)GlcNAc
How it was run: as §1

[35] = molecular target: Gal3S6S(b1-4)GlcNAc6S
How it was run: as §1

[36] = molecular target: Gal4S(b1-4)GlcNAc
How it was run: as §1

[37] = molecular target: Gal4S6S(b1-4)GlcNAc
How it was run: as §1

[38] = molecular target: Gal6S(b1-4)Glc
How it was run: as §1

[39] = molecular target: Gal6S(b1-4)Glc6S
How it was run: as §1

[40] = molecular target: Gal6S(b1-4)GlcNAc
How it was run: as §1

[41] = molecular target: Gal6S(b1-4)GlcNAc6S
How it was run: as §1

[42] = molecular target: GalNAc(a1-3)Gal
How it was run: as §1

[43] = molecular target: GalNAc(a1-3)GalNAc
How it was run: as §1

[44] = molecular target: GalNAc(a1-3)GalNAc(a1-3)Gal(a1-4)Gal(b1-4)GlcNAc
How it was run: as §1

[45] = molecular target: GalNAc(b1-3)Gal
How it was run: as §1

[46] = molecular target: GalNAc(b1-3)Gal(a1-4)Gal(b1-4)GlcNAc
How it was run: as §1

[47] = molecular target: GalNAc(b1-3)Gal(a1-4)Gal(b1-4)GlcNAc(b1-3)Gal(b1-4)Glc
How it was run: as §1

[48] = molecular target: GalNAc(b1-3)Gal(a1-6)Gal(b1-4)Glc
How it was run: as §1

[49] = molecular target: GalNAc(b1-3)GalNAc
How it was run: as §1

[50] = molecular target: GalNAc(b1-4)GlcNAc
How it was run: as §1

B1: Gal 3 (Homo sapiens), P17931 (protein)
chain: MADNFSLHDALSGSGNPNPQGWPGAWGNQPAGAGGYPGASYPGAYPGQAPPGAYPGQAPPGAYHGAPGAYPGAPAPGVYPGPPSGPGAYPSSGQPSAPGAYPATGPYGAPAGPLIVPYNLPLPGGVVPRMLITILGTVKPNANILDFQRGNDVAFHFNPRFNENNRRVIVCNTKLDNNWGREESQSVFPFESGKPFKIQVLVEPDHFKVAVNDAHLLQYNHRVKKLNEISKLGISGDIDLTSASYTMI
Q: With B1 as the binder, how does the “glycan array binding signal (z-score)” value [1] read?
A: -0.047

Q: What about the “glycan array binding signal (z-score)” value [2] of the same binder?
A: -0.041

Q: And the “glycan array binding signal (z-score)” value [3]?
A: -0.082

Q: And the “glycan array binding signal (z-score)” value [4]?
A: -0.086

Q: And the “glycan array binding signal (z-score)” value [5]?
A: -0.073

Q: And the “glycan array binding signal (z-score)” value [6]?
A: -0.024

Q: What about the “glycan array binding signal (z-score)” value [7] of the same binder?
A: -0.056

Q: And the “glycan array binding signal (z-score)” value [8]?
A: -0.084

Q: What about the “glycan array binding signal (z-score)” value [9] of the same binder?
A: -0.047

Q: And the “glycan array binding signal (z-score)” value [10]?
A: -0.042

Q: What about the “glycan array binding signal (z-score)” value [11] of the same binder?
A: -0.075

Q: And the “glycan array binding signal (z-score)” value [12]?
A: -0.007

Q: What about the “glycan array binding signal (z-score)” value [13] of the same binder?
A: -0.058

Q: And the “glycan array binding signal (z-score)” value [14]?
A: -0.061

Q: And the “glycan array binding signal (z-score)” value [15]?
A: -0.073

Q: And the “glycan array binding signal (z-score)” value [16]?
A: -0.022

Q: And the “glycan array binding signal (z-score)” value [17]?
A: -0.026

Q: What about the “glycan array binding signal (z-score)” value [18] of the same binder?
A: -0.065

Q: And the “glycan array binding signal (z-score)” value [19]?
A: -0.058

Q: And the “glycan array binding signal (z-score)” value [20]?
A: -0.022

Q: And the “glycan array binding signal (z-score)” value [21]?
A: -0.078

Q: What about the “glycan array binding signal (z-score)” value [22] of the same binder?
A: -0.073

Q: And the “glycan array binding signal (z-score)” value [23]?
A: -0.024

Q: And the “glycan array binding signal (z-score)” value [24]?
A: -0.059

Q: And the “glycan array binding signal (z-score)” value [25]?
A: -0.072

Q: What about the “glycan array binding signal (z-score)” value [26] of the same binder?
A: -0.06

Q: What about the “glycan array binding signal (z-score)” value [27] of the same binder?
A: -0.037

Q: What about the “glycan array binding signal (z-score)” value [28] of the same binder?
A: -0.069

Q: What about the “glycan array binding signal (z-score)” value [29] of the same binder?
A: -0.064

Q: And the “glycan array binding signal (z-score)” value [30]?
A: -0.024

Q: And the “glycan array binding signal (z-score)” value [31]?
A: -0.082

Q: And the “glycan array binding signal (z-score)” value [32]?
A: -0.016

Q: What about the “glycan array binding signal (z-score)” value [33] of the same binder?
A: -0.071

Q: What about the “glycan array binding signal (z-score)” value [34] of the same binder?
A: -0.069

Q: And the “glycan array binding signal (z-score)” value [35]?
A: -0.055

Q: What about the “glycan array binding signal (z-score)” value [36] of the same binder?
A: -0.085

Q: What about the “glycan array binding signal (z-score)” value [37] of the same binder?
A: 0.002

Q: What about the “glycan array binding signal (z-score)” value [38] of the same binder?
A: -0.063

Q: And the “glycan array binding signal (z-score)” value [39]?
A: -0.06

Q: What about the “glycan array binding signal (z-score)” value [40] of the same binder?
A: -0.067

Q: What about the “glycan array binding signal (z-score)” value [41] of the same binder?
A: -0.066

Q: And the “glycan array binding signal (z-score)” value [42]?
A: -0.075

Q: What about the “glycan array binding signal (z-score)” value [43] of the same binder?
A: -0.071

Q: What about the “glycan array binding signal (z-score)” value [44] of the same binder?
A: -0.072

Q: And the “glycan array binding signal (z-score)” value [45]?
A: -0.043

Q: What about the “glycan array binding signal (z-score)” value [46] of the same binder?
A: -0.051

Q: What about the “glycan array binding signal (z-score)” value [47] of the same binder?
A: -0.057

Q: What about the “glycan array binding signal (z-score)” value [48] of the same binder?
A: -0.068

Q: And the “glycan array binding signal (z-score)” value [49]?
A: -0.059

Q: And the “glycan array binding signal (z-score)” value [50]?
A: -0.048
